# PubChem BioAssay AID686970 (National Center for Advancing Translational Sciences (NCATS), 2013)
# The whole screen tested about 360,000 compounds, of which about 6,000 (1.7%) were called active. This list was built around the results that the source calls inconclusive (neither active nor inactive); the mix of calls is not that of the screen. The call rests on the fitted dose curve; in most records, active means well fitted cell-killing curve with a large enough effect; inconclusive means small, poorly fitted or top-dose-only effect, or effect the other way; inactive means flat fitted curve, though single readings scatter. No potency is given beside an inconclusive call; the fits are too rough.
# Assay: qHTS for induction of synthetic lethality in tumor cells producing 2HG: qHTS for the HT-1080-NT fibrosarcoma cell line;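 further: NT is the 2HG producing partner of a matched IDH1 knockdown line; nearly all actives have a fitted effect of over 55% in size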
# Conditions: HT-1080-NT fibrosarcoma viability, CellTiter-Glo ATP luminescence, 48 h; series mostly up to 46.1 µM
# Method in brief: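 Fibrosarcoma NT cells, 750 per well in 5% FBS RPMI, were exposed to compound for 48 hours. Viability: CellTiter-Glo luminescence.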
# Potency means the concentration at half of the fitted maximal effect; tags describe the fitted curve by direction and shape.
row,Compound,Potency
1,Cc1ccc(-c2cc(=O)c3ccccc3[nH]2)cc1,"inconclusive [cytotoxic, single point]"
2,COc1ccc(N(CC(=O)Nc2cc(Cl)ccc2C)S(=O)(=O)c2c(C)n[nH]c2C)cc1,"inconclusive [cytotoxic, single point]"
3,CCCCCCOc1ccc(OC(=O)c2ccncc2)cc1,"inconclusive [cytotoxic, partial curve]"
4,O=C1C=CC(=Nc2ccc(F)cc2)O1,"inconclusive [cytotoxic, single point]"
5,CCN(CC)C(=O)[C@H]1C[C@H](CC(=O)NCCN2CCOCC2)C(=O)N2CCc3c([nH]c4cc(CCC(=O)N(C)C)ccc34)[C@]12C,inactive
6,O=C(NC(Cc1c[nH]c2ccccc12)C(=O)Nc1ccc(OC(F)(F)F)cc1)c1cccs1 (stereo not drawn),"inconclusive [cytotoxic, partial curve, poor fit]"
7,Cc1cccc(CS(=O)(=O)c2ncc(Cl)c(C(=O)Nc3c(C)cccc3C)n2)c1,"inconclusive [cytotoxic, single point]"
8,CS(=O)(=O)c1ccc2nc(NC(=O)Nc3ccc(Cl)c(Cl)c3)sc2c1,"inconclusive [cytotoxic, single point]"
9,CN(CC(=O)Nc1cccc(F)c1)C(=O)c1ccc(N2CCCCC2)c([N+](=O)[O-])c1,"inconclusive [cytotoxic, single point]"
10,COc1ccc(-c2oc3ccc(N4CCOCC4)cc3c2C#CCO)cc1,"inconclusive [cytotoxic, single point]"
11,COc1ccnc(NCc2cccc(C(F)(F)F)c2)c1C#N,inactive
12,O=C(CC1C(=O)N(c2ccc(Cl)cc2)C(=S)N1CCc1ccncc1)Nc1ccc(F)cc1 (stereo not drawn),"inconclusive [cytotoxic, single point]"
13,CCN1CCN(CCNC(=O)c2ccc3c(c2)N(Cc2ccc(F)cc2)C(=O)/C(=C/c2ccccc2)S3)CC1,active: 6.51 µM
14,O=C(c1ccc(Cl)cc1)c1cnc(Nc2ccccc2Cl)s1,"inconclusive [cytotoxic, single point]"
15,CCCCn1nnc(NC(=O)c2ccc(-c3ccccc3[N+](=O)[O-])o2)n1,inactive
16,COc1ccc(/C=N\NC(=O)c2c(C)nc3ccc(Br)cn23)cc1,"inconclusive [cytotoxic, full curve]"
17,CCOc1ccc(OCCN2CCCCC2)cc1,inactive
18,O=C(Nc1ccncc1)c1cn(-c2ccccc2)nc1-c1cccs1,"inconclusive [cytotoxic, single point]"
